This continues a long series; more values of the same kind are listed elsewhere.
Assay: xn = mol fraction of the nth substance listed
Details: 101 kPa

OCC(O)CO + O
viscosity [mPa·s]
Details	293.15 K	295.65 K	298.15 K
x1 = 0.00777	1.109	–	0.981
x1 = 0.0152	1.216	–	1.073
x1 = 0.021	1.31	–	–
x1 = 0.02262	1.331	–	1.172
x1 = 0.03118	1.478	–	1.295
x1 = 0.03958	1.634	–	1.428
x1 = 0.04604	1.756	–	1.53
x1 = 0.047	1.76	–	–
x1 = 0.05683	1.995	–	1.731
x1 = 0.07063	2.323	–	2.007
x1 = 0.077	2.5	–	–
x1 = 0.07885	2.545	–	2.191
x1 = 0.08828	2.822	–	2.42
x1 = 0.1003	3.207	–	2.741
x1 = 0.1005	–	–	2.523
x1 = 0.1112	3.595	–	3.054
x1 = 0.12	3.72	–	–
x1 = 0.1223	4.029	–	3.407
x1 = 0.1369	4.668	–	3.927
x1 = 0.154	5.618	–	4.611
x1 = 0.16	6	–	–
x1 = 0.171	6.516	–	5.409
x1 = 0.1874	7.6	–	6.266
x1 = 0.1967	8.282	7.494	6.804
x1 = 0.2026	–	–	6.506
x1 = 0.2067	9.092	8.209	7.447
x1 = 0.2178	10.07	9.074	8.184
x1 = 0.225	10.79	9.679	8.756
x1 = 0.23	10.8	–	–
x1 = 0.2378	12.06	10.79	9.731
x1 = 0.2459	–	11.64	10.47
x1 = 0.2622	14.99	13.35	11.96
x1 = 0.2636	15.13	13.46	12.05
x1 = 0.27	15.2	–	–
x1 = 0.28	17.7	–	–
x1 = 0.281	–	–	9.453
x1 = 0.2837	17.89	15.86	14.12
x1 = 0.3085	–	–	11.98
x1 = 0.31	22.5	–	–
x1 = 0.3153	23.35	20.53	18.21
x1 = 0.3391	28.57	24.98	22.03
x1 = 0.365	35.11	30.57	26.81
x1 = 0.37	35.5	–	–
x1 = 0.3785	38.98	33.8	29.61
x1 = 0.399	–	–	24.31
x1 = 0.4055	47.97	41.41	36.08
x1 = 0.4294	57.79	49.52	42.85
x1 = 0.44	60.1	–	–
x1 = 0.452	70.28	60.08	51.9
x1 = 0.485	85.73	72.75	62.53
x1 = 0.5002	–	–	62.82
x1 = 0.5117	103.2	87.23	74.5
x1 = 0.53	109	–	–
x1 = 0.5472	131.1	110.2	93.52
x1 = 0.5575	140.4	117.9	99.86
x1 = 0.5867	172.2	143.4	120.9
x1 = 0.6006	–	–	123.6
x1 = 0.6349	231.6	191.5	160.6
x1 = 0.64	219	–	–
x1 = 0.6493	–	–	161
x1 = 0.659	268	220.5	183.8
x1 = 0.66	259	–	–
x1 = 0.69	310	–	–
x1 = 0.6917	–	–	202.1
x1 = 0.6978	337.9	276.5	229.2
x1 = 0.7166	375.6	306.8	254.7
x1 = 0.72	367	–	–
x1 = 0.7442	442.3	359.9	295.9
x1 = 0.75	437	–	–
x1 = 0.7646	481.7	390.7	321.5
x1 = 0.79	523	–	–
x1 = 0.7947	565.6	457.6	374.9
x1 = 0.7958	–	–	364.5
x1 = 0.8114	618.5	499.5	–
x1 = 0.82	624	–	–
x1 = 0.8274	671.6	542.1	–
x1 = 0.8428	724	582.9	–
x1 = 0.859	783.5	629.6	–
x1 = 0.86	765	–	–
x1 = 0.9082	986	789.8	–
x1 = 0.91	939	–	–
x1 = 0.9434	1158	926	–
x1 = 0.95	1150	–	–
x2 = 0.0171	1385	1102	–

Reference: the CheMixHub viscosity set
